This series deals with the molecule itself. In words: thioflavin S fluorescence kinetics of self-assembly.

Data on one protein can be found in article doi:10.1101/2025.02.05.636249 (bioRxiv, 2025).

B1: dGAE-C322A (domain or fragment)
chain: not shown
In the case of B1, the binding result is listed as “binds”.
